Reference: the supplement of paper PMC10126150
Values marked as one replicate rest on one cluster of the flow cell; about a third of the high ones do not repeat.

Test system: ATP
Experiment: switch fluorescence ratio, 500 uM ATP over buffer (Cy3 cluster intensity, sum of 5 cycles each) (fold (ratio)); higher = stronger signal-on switching upon ATP binding; sequences stand for … in TCGTCGGCAGCGTCAGATGTGTATAAGAGACAGTTTTTTTTTTTTTTTTTTTTTTTTT…TC
Settings: aptamer strand: ATP DNA aptamer (quencher-CACCTGGGGGAGTATTGCGGAGGAAGG + anchor), 100 nM annealed; ATP concentration: 500 uM; one replicate
Summary of the method: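 Imaging in selection buffer was followed by imaging after 15 min with 500 uM ATP at 22 °C, for Cy3-labelled switching-strand clusters annealed to 100 nM quencher-labelled ATP aptamer on a modified Illumina MiSeq flow-cell. Five of these buffer/ATP cycles ran, separated by NaOH stripping and re-annealing. The fluorescence ratio per cluster is summed target-cycle over summed buffer-cycle Cy3 intensity, averaged per switch-domain sequence; clusters outside 100-1000 RFU were removed.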
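Note: ATP exposure 15 min at 22 °C before imaging.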

| Sequence | switch fluorescence ratio |
| --- | --- |
| CAGAGGTAAT | 1.18 |
| ATATTAATCC | 1.01 |
| CGATACAAGA | 1.07 |
| TCTTCGTGCA | 1.06 |
| GTTGTAGTT | 0.989 |
| TCCGTTATAA | 2.63 |
| CAAGTCTATA | 1.02 |
| GCTAGCGAT | 1.03 |
| TCCCAAACCC | 2.01 |
| ATTGTATGTT | 0.987 |
| GAAGGGAATT | 0.946 |
| AGATAGTCAG | 0.992 |
| GGTTTCTACG | 1.03 |
| CTTCAAGTGG | 1.15 |
| GAGGCTTACC | 0.953 |
| GCCTAGGTAT | 1 |
| TATGTAGGTC | 1.04 |
| GAGATTGTCA | 0.977 |
| CGCATAGTTA | 1.03 |
| AAGAGTCCTA | 0.975 |
| GTACTGGC | 1.04 |
| GTTGTTCACT | 0.976 |
| TGAACTACTC | 1.12 |

| Sequence | switch fluorescence ratio |
| --- | --- |
| ATTGAGTATT | 0.99 |
| CGACCGTCGA | 1.02 |
| GGCTCCATAC | 2.21 |
| AGCCTGCTTA | 0.995 |
| GAGTCAGCCT | 1.02 |
| TAGCGACTTC | 1 |
| ACACTGTCTA | 1.01 |
| CGGTAGAATT | 0.974 |
| GCATCGAACC | 1.16 |
| TTCGAGGATT | 0.993 |
| CTTCACGGTG | 1.15 |
| ATATTCTG | 1.03 |
| AAGATCTGCG | 1.01 |
| TTAAGGATAT | 1.03 |
| TCGTTAAAGG | 1.66 |
| ATAGGTGAGG | 1.01 |
| TAATTACTAA | 0.974 |
| TCAACGTTAG | 0.994 |
| GTCTAAAGGT | 0.95 |
| TTCCCCATT | 1.13 |
| GAAAGGGTGC | 1.1 |
| CGGTCGTGCA | 0.99 |
| TGTTCACCGC | 1.06 |

| Sequence | switch fluorescence ratio |
| --- | --- |
| CGTAGAACAC | 1.1 |
| ACGGTGACTT | 1.05 |
| GCGTGTGGCA | 1.01 |
| GAAGGACTGC | 0.958 |
| CCCTGTTTTC | 1.02 |
| TTCCGGGTCT | 0.997 |
| CTACAACGAC | 1.2 |
| CTGGAAAGT | 0.956 |
| GCCTACGAT | 1.08 |
| CCCCTTACAC | 1.08 |
| ATTAGATCTA | 0.98 |
| GTAGTACTG | 1.04 |
| GGCAAATAGT | 0.995 |
| GCGGTAAAGT | 0.99 |
| TGATAGAACT | 0.987 |
| GAAGAGGATA | 0.965 |
| TCGTTGGGCT | 1 |
| AAATTAAGTC | 1.07 |
| CCCACTAATC | 1.18 |
| TATCTCGCCA | 1.07 |
| TTGAAGATTT | 0.986 |
| AAGGGATTA | 1 |
| CGTCGATCAA | 0.996 |

| Sequence | switch fluorescence ratio |
| --- | --- |
| CGCTCACAGT | 1.04 |
| TCGCCAGTGA | 1.01 |
| GTAAGTGTCT | 0.99 |
| GCCGTGACGC | 0.994 |
| GGTTATGGTC | 0.957 |
| ATGTGTGTCT | 0.986 |
| GGTAATCGGC | 0.996 |
| CCTCACCACG | 1.23 |
| TTGAATTGAT | 1 |
| CGCGCCTCGT | 1.01 |
| ACGACGGGGT | 1.02 |
| AACAGGGACT | 0.985 |
| AATCGTCTCG | 1 |
| ATATTCGTTT | 0.995 |
| ACGGCCGGAG | 1.05 |
| GAGACAAAAA | 1 |
| TTGTATTGAC | 1.02 |
| TCAGGAAGAA | 0.962 |
| ATCCAAGGGA | 1.01 |
| AGTATGGGAG | 1.02 |
| GATCAGAGGC | 0.957 |
| AAGGCCCAAA | 0.979 |
| TAAGTGACTC | 1.04 |

| Sequence | switch fluorescence ratio |
| --- | --- |
| CATGGGAAAA | 0.979 |
| CTGGAGGGTT | 1.01 |
| GGGCCAGAGC | 0.93 |
| AAAGTTGACT | 1.01 |
| CTTAGGGCTT | 0.962 |
| TTCCCGTGTC | 2.2 |
| TTATGCATAT | 1.03 |
| CGTGCTCAAC | 1.03 |
| GCATAATACG | 1.31 |
| CACCAGCGTA | 1.04 |
| GGGCCCAGGC | 1.07 |
| ATCCTGTGAC | 1.2 |
| CTCCTCTTGG | 1.24 |
| AGCTATTTA | 0.965 |
| GGTCAAATTG | 1.02 |
| GCAGAGGTCT | 1.03 |
| ATTTATGTA | 1.01 |
| ACATGGTGGG | 1.02 |
| TGAATGTAGA | 1.03 |
| ATGAGGACGG | 0.994 |
| TTTCGAGAAT | 0.986 |
| GCATTTGTTT | 0.978 |
| AACGCATATG | 1.13 |

| Sequence | switch fluorescence ratio |
| --- | --- |
| GACGACCGTT | 1.2 |
| TTCCTGATCT | 1.04 |
| AAGTGCACTT | 0.975 |
| TACTCTTGT | 0.987 |
| GTTAGCGGGC | 1.01 |
| ATTGACTGGG | 0.958 |
| GAGGTCTAGC | 1 |
| TGCTACAT | 1.05 |
| TAACGTTCTA | 1.01 |
| TCGCACGGTA | 1.05 |
| AGGTTAATGC | 1.2 |
| TTAAGTGGTA | 1 |
| TGCAGTGGGC | 1.04 |
| GCTATCAAGT | 0.984 |
| GTAAAAACGT | 1.03 |
| CACAGGCAGC | 0.999 |
| TCACAGCTCG | 0.987 |
| GCAGTTTACC | 1.04 |
| CGGTGCAATG | 1.76 |
| CATGTTTCG | 1.07 |
| ATTCATTGAC | 1.02 |
| AGCGACCACC | 1.26 |
| TGTCAGCGAT | 1.22 |

| Sequence | switch fluorescence ratio |
| --- | --- |
| CCCAATGCTA | 2.8 |
| CAAACGTCTT | 1.03 |
| ACCGGCAAGA | 1.08 |
| TGTGCATGTG | 0.996 |
| TCGAGAGTGT | 0.978 |
| ATAAAACGGT | 1.02 |
| ACCCGGTGTC | 1.61 |
| TCATTCTAAA | 0.983 |
| CCGCCTTCTT | 1.11 |
| AGGAGATTAA | 1.07 |
| CCTGCCCATT | 1.31 |
| GCAACCACTT | 1.09 |
| CGAAGCTGTG | 1.02 |
| CGACTTCTGT | 0.989 |
| CTTTTCTATT | 1.01 |
| TTTGTCCTTC | 1.08 |
| TACTATTAAC | 1.04 |
| GGCGTCCGGG | 0.993 |
| TAACGTAAAT | 0.997 |
